Measurements: publication PMC4336329 (PLoS ONE, 2015)
In all, about 310,000 compounds went through this assay and about 14,000 (4.5%) showed an effect of 50% or more. Effects have a minus sign here. This is one part of the list.
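Note: peak tail current of the secondary pulse compared with the same well before compound.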

What follows are molecules tested against human ether-à-go-go-related gene (hERG) potassium channel (human, UniProt Q12809) (assay: primary screen, population patch clamp on CHO cells stably expressing hERG).
Sequence of human ether-à-go-go-related gene (hERG) potassium channel (Q12809 whole entry, looked up): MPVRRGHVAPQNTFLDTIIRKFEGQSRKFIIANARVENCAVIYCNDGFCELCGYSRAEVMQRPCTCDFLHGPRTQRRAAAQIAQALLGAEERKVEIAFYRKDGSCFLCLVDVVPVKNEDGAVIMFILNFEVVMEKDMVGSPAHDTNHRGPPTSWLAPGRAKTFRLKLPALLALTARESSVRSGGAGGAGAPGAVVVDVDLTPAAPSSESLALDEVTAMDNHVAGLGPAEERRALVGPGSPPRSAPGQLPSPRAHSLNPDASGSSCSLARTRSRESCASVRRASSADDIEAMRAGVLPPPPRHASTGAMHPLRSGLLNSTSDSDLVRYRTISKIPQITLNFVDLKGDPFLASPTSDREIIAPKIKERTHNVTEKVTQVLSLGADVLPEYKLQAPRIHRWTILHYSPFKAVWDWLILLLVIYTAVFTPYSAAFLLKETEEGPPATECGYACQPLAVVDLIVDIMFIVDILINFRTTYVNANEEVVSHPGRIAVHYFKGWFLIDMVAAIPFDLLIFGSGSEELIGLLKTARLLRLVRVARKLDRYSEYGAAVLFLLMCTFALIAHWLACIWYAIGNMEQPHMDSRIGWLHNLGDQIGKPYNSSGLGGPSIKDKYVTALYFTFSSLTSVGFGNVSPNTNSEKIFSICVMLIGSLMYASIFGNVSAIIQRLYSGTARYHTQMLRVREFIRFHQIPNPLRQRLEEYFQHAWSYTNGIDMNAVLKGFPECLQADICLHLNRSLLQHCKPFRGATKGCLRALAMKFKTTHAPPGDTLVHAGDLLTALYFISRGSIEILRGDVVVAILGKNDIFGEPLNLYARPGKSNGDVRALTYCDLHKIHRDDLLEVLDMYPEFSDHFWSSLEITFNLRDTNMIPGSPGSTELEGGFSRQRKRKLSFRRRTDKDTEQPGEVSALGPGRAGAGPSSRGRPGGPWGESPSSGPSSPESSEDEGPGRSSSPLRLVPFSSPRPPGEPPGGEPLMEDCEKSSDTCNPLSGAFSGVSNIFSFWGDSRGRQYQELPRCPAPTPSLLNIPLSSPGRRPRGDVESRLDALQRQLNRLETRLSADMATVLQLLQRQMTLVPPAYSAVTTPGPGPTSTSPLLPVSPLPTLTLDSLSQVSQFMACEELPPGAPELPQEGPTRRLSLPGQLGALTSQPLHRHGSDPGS
`CC(=O)c1nnn(-c2nc(N)nc(N(c3ccccc3)c3ccccc3)n2)c1C` was tested, and the “hERG current change (%, negative = inhibition) at 10uM” value was -1.85%. For `COc1ccccc1CNS(=O)(=O)c1cc(-c2cc(C)no2)ccc1C(C)C`, the “hERG current change (%, negative = inhibition) at 10uM” value was 5.07%. With `O=C1C(=O)N(CCCN2CCOCC2)C(c2ccc(Cl)cc2)/C1=C(\O)c1ccc2c(c1)OCCO2` (stereo not shown) the “hERG current change (%, negative = inhibition) at 10uM” value was 15.9%. For `Cn1nc(C(=O)OCC(=O)Nc2ccccc2[N+](=O)[O-])c2ccccc2c1=O`, the “hERG current change (%, negative = inhibition) at 10uM” value was -0.623%. In the case of `Cc1cc(NC(=O)CCCn2cc([N+](=O)[O-])cn2)n(Cc2ccc(F)cc2)n1`, the “hERG current change (%, negative = inhibition) at 10uM” value is reported as -40.1%. For `O=C(Nc1ccccc1)n1cc(-c2ccccn2)c(N2CCOCC2)n1`, the “hERG current change (%, negative = inhibition) at 10uM” value was -4.57%. With `COc1cccc(C(=O)NC2CC(C)(C)NC(C)(C)C2)c1OC` the “hERG current change (%, negative = inhibition) at 10uM” value was -3.54%. In the case of `C#CCn1c(C)cc(C)c(S(=O)(=O)c2ccccc2)c1=O`, the “hERG current change (%, negative = inhibition) at 10uM” value is reported as 10.1%. In the case of `O=C(CN(Cc1ccco1)C(=O)c1ccc(F)cc1F)Nc1ccccc1C(F)(F)F`, the “hERG current change (%, negative = inhibition) at 10uM” value is reported as -21.5%. In the case of `CC1CCN(C(=O)C2CCN(S(=O)(=O)c3cccc4nsnc34)CC2)CC1`, the “hERG current change (%, negative = inhibition) at 10uM” value is reported as -24.6%. `Cc1ccc(S(=O)(=O)NCC(=O)NCCc2c[nH]c3ccccc23)cc1C` was tested, and the “hERG current change (%, negative = inhibition) at 10uM” value was 3.3%. For `COc1cccc(C(=O)N2CCC(N3CC(C)OC(C)C3)CC2)c1.O=C(O)C(=O)O` (stereo not shown), the “hERG current change (%, negative = inhibition) at 10uM” value was 14.4%. With `O=C(Nc1ccc(F)cc1)N1CCCN(c2ccc(C(F)(F)F)cn2)CC1` the “hERG current change (%, negative = inhibition) at 10uM” value was -47.9%. For `CN1CCN(C(=O)c2cc3nc(-c4ccccc4)cc(-c4ccccc4)n3n2)CC1`, the “hERG current change (%, negative = inhibition) at 10uM” value was -38.3%. In the case of `COc1ccc(N(C(C)C(=O)NCCSCc2cccc(Cl)c2)S(C)(=O)=O)cc1` (stereo not shown), the “hERG current change (%, negative = inhibition) at 10uM” value is reported as -13.3%. With `CN(CCOc1ccccc1)C(=O)c1ccc(Cl)c(S(=O)(=O)N2CCCCC2)c1` the “hERG current change (%, negative = inhibition) at 10uM” value was -67.4%. For `Cc1cccc2c(=O)cc(C)n(CC(=O)N3CCCCC3)c12`, the “hERG current change (%, negative = inhibition) at 10uM” value was 3.57%. For `O=C(CCNC(=O)c1ccc(Cl)cc1)NC1CCCCCC1`, the “hERG current change (%, negative = inhibition) at 10uM” value was -32.3%. `NC(=O)CSc1nc2cccnc2n1-c1ccc(F)cc1` was tested, and the “hERG current change (%, negative = inhibition) at 10uM” value was 14%. For `CCOC(=O)C1CCCN(CC(=O)Nc2nccs2)C1` (stereo not shown), the “hERG current change (%, negative = inhibition) at 10uM” value was -2.49%. `CC1Cc2ccccc2N1C(=O)CSc1nnc2sc3ccccc3n12` (stereo not shown) was tested, and the “hERG current change (%, negative = inhibition) at 10uM” value was -10.9%. With `Cc1c([N+](=O)[O-])c(C(=O)N2CCCC2)nn1C` the “hERG current change (%, negative = inhibition) at 10uM” value was -3.4%. With `CCOC(=O)N1C(=O)c2cc(OC)ccc2S1(=O)=O` the “hERG current change (%, negative = inhibition) at 10uM” value was 13.1%. With `CCN(CC)CCCn1c2c(c(SCC(=O)Nc3cc(OC)cc(OC)c3)nc1=O)CCC2` the “hERG current change (%, negative = inhibition) at 10uM” value was -64.4%. `O=S(=O)(NCC(c1ccco1)N1CCN(c2ccc(F)cc2)CC1)c1ccc2c(c1)OCCO2` (stereo not shown) was tested, and the “hERG current change (%, negative = inhibition) at 10uM” value was 6.14%. For `COc1ccccc1Nc1nc(NCCO)nc(N)c1[N+](=O)[O-]`, the “hERG current change (%, negative = inhibition) at 10uM” value was 2.88%. `CCCc1cc(C(=O)Nc2cccc([N+](=O)[O-])c2)cs1` was tested, and the “hERG current change (%, negative = inhibition) at 10uM” value was -3.62%. `Cn1c(=O)[nH]c(=O)c2c1nc(N/N=C/c1cccnc1)n2Cc1ccc(Cl)cc1` was tested, and the “hERG current change (%, negative = inhibition) at 10uM” value was 23.1%. `CC(C)(CNC(=O)c1ccc([N+](=O)[O-])c(Cl)c1)CNC(=O)c1ccc([N+](=O)[O-])c(Cl)c1` was tested, and the “hERG current change (%, negative = inhibition) at 10uM” value was -19.1%. For `COCc1ccccc1C1=CC(=O)C[C@H](c2ccc(OC)cc2)C1`, the “hERG current change (%, negative = inhibition) at 10uM” value was -12.3%. With `O=C(Nc1nnc(CCN2CCCCC2)s1)c1cccc(Cl)c1` the “hERG current change (%, negative = inhibition) at 10uM” value was -10.8%. In the case of `CCc1ccc(OCC(=O)N2CCN=C2c2ccccc2)cc1`, the “hERG current change (%, negative = inhibition) at 10uM” value is reported as -5.36%. With `Cn1cccc1CNC(=S)Nc1ccccc1F` the “hERG current change (%, negative = inhibition) at 10uM” value was 1.49%. In the case of `NC(=O)COc1ccc(-c2noc(COc3ccccc3[N+](=O)[O-])n2)cc1`, the “hERG current change (%, negative = inhibition) at 10uM” value is reported as 2.03%. For `CCOC(=O)c1[nH]c2ccc(OC)cc2c1NS(=O)(=O)c1ccc(Cl)s1`, the “hERG current change (%, negative = inhibition) at 10uM” value was 12.9%. For `CCOCCCNc1ncnc2c1nc1n2CCCC1`, the “hERG current change (%, negative = inhibition) at 10uM” value was 17.2%. For `O=C(Nc1nc(-c2ccccc2)c(C(=O)c2ccccc2)s1)c1ccc(S(=O)(=O)N2CCCC2)cc1`, the “hERG current change (%, negative = inhibition) at 10uM” value was -3.8%. `CCN(c1ccc(OC)cc1)S(=O)(=O)c1nnc(NC(=O)COc2ccccc2)s1` was tested, and the “hERG current change (%, negative = inhibition) at 10uM” value was 24.3%. With `CCCCN(C(=O)c1cccc(-n2cccc2)c1)c1c(N)n(CCCC)c(=O)[nH]c1=O` the “hERG current change (%, negative = inhibition) at 10uM” value was 7.97%. With `Cc1ccc(CNC(=O)Cn2c(=O)n(CC(=O)N3CCCCC3)c(=O)c3sccc32)cc1` the “hERG current change (%, negative = inhibition) at 10uM” value was 14%. In the case of `O=C(O)c1ccccc1N/N=C/C1=C(N2CCOCC2)C(=C\c2ccccc2)/CC1`, the “hERG current change (%, negative = inhibition) at 10uM” value is reported as 18.9%. `O=C(O)c1cc(-c2ccco2)nn1-c1cccc(Cl)c1` was tested, and the “hERG current change (%, negative = inhibition) at 10uM” value was 22.8%. With `S=C(NCCc1c[nH]c2ccccc12)NC1CCCCC1` the “hERG current change (%, negative = inhibition) at 10uM” value was 5.36%.
